According to the supplement of paper PMC8728848:
This is one part of the list.

How the values were obtained:
Experiment in all cases: glycan array binding signal (z-score within array); higher = stronger binding
Conditions in all cases: glycan notation: IUPAC condensed, linker removed
[1] = target: Neu5Ac(a2-3)Gal(b1-4)[Fuc(a1-3)]GlcNAc(b1-3)Gal(b1-4)[Fuc(a1-3)]GlcNAc(b1-3)Gal(b1-4)[Fuc(a1-3)]GlcNAc
Procedure, shortened: (§1)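 Glycan array data were curated from 3228 arrays in the Consortium for Functional Glycomics database and kept only where the protein sequence was available. Glycan names were converted to IUPAC-condensed notation, and columns mapping to the same glycan were averaged. The binding signal is a within-array Z-score, averaged across arrays of the same protein sequence at different concentrations or buffers and across linkers. Negative Z-scores can be read as non-binding.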

[2] = target: Neu5Ac(a2-3)Gal(b1-4)[Fuc(a1-3)]GlcNAc(b1-3)GalNAc
Procedure, shortened: as §1

[3] = target: Neu5Ac(a2-3)Gal(b1-4)[Fuc(a1-3)]GlcNAc(b1-4)GalNAc(b1-3)Gal(b1-4)Glc
Procedure, shortened: as §1

[4] = target: Neu5Ac(a2-3)Gal(b1-4)[Fuc(a1-3)]GlcNAc(b1-6)Gal(b1-4)Glc
Procedure, shortened: as §1

[5] = target: Neu5Ac(a2-3)Gal(b1-4)[Fuc(a1-3)]GlcNAc(b1-6)[Gal(b1-3)]GalNAc
Procedure, shortened: as §1

[6] = target: Neu5Ac(a2-3)Gal(b1-4)[Fuc(a1-3)]GlcNAc(b1-6)[Neu5Ac(a2-3)Gal(b1-3)]GalNAc
Procedure, shortened: as §1

[7] = target: Neu5Ac(a2-3)Gal(b1-4)[Fuc(a1-3)]GlcNAc6S
Procedure, shortened: as §1

[8] = target: Neu5Ac(a2-3)Gal(b1-4)[Fuc(a1-3)]GlcNAc6S(b1-3)Gal(b1-4)Glc
Procedure, shortened: as §1

[9] = target: Neu5Ac(a2-3)Gal(b1-4)[Fuc2Me(a1-3)]GlcNAc(b1-3)Gal
Procedure, shortened: as §1

[10] = target: Neu5Ac(a2-3)Gal(b1-4)[Qui(a1-3)]GlcNAc(b1-3)Gal
Procedure, shortened: as §1

[11] = target: Neu5Ac(a2-3)Gal(b1-4)[Rha(a1-3)]GlcNAc(b1-3)Gal
Procedure, shortened: as §1

Neu5Ac(a2-3)Gal3S = target: Neu5Ac(a2-3)Gal3S
Procedure, shortened: as §1

[12] = target: Neu5Ac(a2-3)Gal6S(b1-4)GlcNAc
Procedure, shortened: as §1

[13] = target: Neu5Ac(a2-3)Gal6S(b1-4)[Fuc(a1-3)]GlcNAc
Procedure, shortened: as §1

[14] = target: Neu5Ac(a2-3)Gal6S(b1-4)[Fuc(a1-3)]GlcNAc(b1-3)Gal(b1-4)Glc
Procedure, shortened: as §1

[15] = target: Neu5Ac(a2-3)Gal6S(b1-4)[Fuc(a1-3)]GlcNAc6S(b1-3)Gal(b1-4)Glc
Procedure, shortened: as §1

Neu5Ac(a2-3)GalNAc = target: Neu5Ac(a2-3)GalNAc
Procedure, shortened: as §1

[16] = target: Neu5Ac(a2-3)GalNAc(b1-4)GlcNAc
Procedure, shortened: as §1

[17] = target: Neu5Ac(a2-3)GalNBz(b1-4)GlcNAc
Procedure, shortened: as §1

[18] = target: Neu5Ac(a2-3)[GalNAc(b1-4)]Gal(b1-3)Gal
Procedure, shortened: as §1

[19] = target: Neu5Ac(a2-3)[GalNAc(b1-4)]Gal(b1-3)GalNAc(b1-4)[Neu5Ac(a2-3)]Gal(b1-4)Glc
Procedure, shortened: as §1

[20] = target: Neu5Ac(a2-3)[GalNAc(b1-4)]Gal(b1-3)Glc
Procedure, shortened: as §1

[21] = target: Neu5Ac(a2-3)[GalNAc(b1-4)]Gal(b1-4)Glc
Procedure, shortened: as §1

[22] = target: Neu5Ac(a2-3)[GalNAc(b1-4)]Gal(b1-4)GlcNAc
Procedure, shortened: as §1

[23] = target: Neu5Ac(a2-3)[GalNAc(b1-4)]Gal(b1-4)GlcNAc(b1-3)GalNAc
Procedure, shortened: as §1

[24] = target: Neu5Ac(a2-3)[GalNAc(b1-6)]Gal(b1-4)Glc
Procedure, shortened: as §1

[25] = target: Neu5Ac(a2-3)[Neu5Ac(a2-6)]GalNAc
Procedure, shortened: as §1

Neu5Ac(a2-6)Gal = target: Neu5Ac(a2-6)Gal
Procedure, shortened: as §1

[26] = target: Neu5Ac(a2-6)Gal(b1-3)GalNAc(b1-4)Gal(b1-4)Glc
Procedure, shortened: as §1

[27] = target: Neu5Ac(a2-6)Gal(b1-3)GlcNAc(b1-3)[Fuc(a1-3)[Gal(b1-4)]GlcNAc(b1-6)]Gal(b1-4)Glc
Procedure, shortened: as §1

[28] = target: Neu5Ac(a2-6)Gal(b1-3)GlcNAc(b1-3)[Gal(b1-4)GlcNAc(b1-6)]Gal(b1-4)Glc
Procedure, shortened: as §1

[29] = target: Neu5Ac(a2-6)Gal(b1-3)[Neu5Ac(a2-6)]GalNAc(b1-4)Gal(b1-4)Glc
Procedure, shortened: as §1

Neu5Ac(a2-6)Gal(b1-4)Glc = target: Neu5Ac(a2-6)Gal(b1-4)Glc
Procedure, shortened: as §1

[30] = target: Neu5Ac(a2-6)Gal(b1-4)GlcNAc
Procedure, shortened: as §1

[31] = target: Neu5Ac(a2-6)Gal(b1-4)GlcNAc(b1-2)Man
Procedure, shortened: as §1

[32] = target: Neu5Ac(a2-6)Gal(b1-4)GlcNAc(b1-2)Man(a1-3)Man(b1-4)GlcNAc(b1-4)GlcNAc
Procedure, shortened: as §1

[33] = target: Neu5Ac(a2-6)Gal(b1-4)GlcNAc(b1-2)Man(a1-3)[Gal(b1-4)GlcNAc(b1-2)Man(a1-6)]Man(b1-4)GlcNAc(b1-4)GlcNAc
Procedure, shortened: as §1

[34] = target: Neu5Ac(a2-6)Gal(b1-4)GlcNAc(b1-2)Man(a1-3)[GlcNAc(b1-2)Man(a1-6)]Man(b1-4)GlcNAc(b1-4)GlcNAc
Procedure, shortened: as §1

[35] = target: Neu5Ac(a2-6)Gal(b1-4)GlcNAc(b1-2)Man(a1-3)[GlcNAc(b1-2)Man(b1-4)GlcNAc(b1-2)Man(a1-6)]Man(b1-4)GlcNAc(b1-4)GlcNAc
Procedure, shortened: as §1

[36] = target: Neu5Ac(a2-6)Gal(b1-4)GlcNAc(b1-2)Man(a1-3)[GlcNAc(b1-4)][Neu5Ac(a2-6)Gal(b1-4)GlcNAc(b1-2)Man(a1-6)]Man(b1-4)GlcNAc(b1-4)GlcNAc
Procedure, shortened: as §1

[37] = target: Neu5Ac(a2-6)Gal(b1-4)GlcNAc(b1-2)Man(a1-3)[Man(a1-6)]Man(b1-4)GlcNAc(b1-4)GlcNAc
Procedure, shortened: as §1

[38] = target: Neu5Ac(a2-6)Gal(b1-4)GlcNAc(b1-2)Man(a1-3)[Neu5Ac(a2-3)Gal(b1-4)GlcNAc(b1-2)Man(a1-6)]Man(b1-4)GlcNAc(b1-4)GlcNAc
Procedure, shortened: as §1

[39] = target: Neu5Ac(a2-6)Gal(b1-4)GlcNAc(b1-2)Man(a1-3)[Neu5Ac(a2-6)Gal(b1-4)GlcNAc(b1-2)Man(a1-6)]Man(b1-4)GlcNAc(b1-4)GlcNAc
Procedure, shortened: as §1

[40] = target: Neu5Ac(a2-6)Gal(b1-4)GlcNAc(b1-2)Man(a1-3)[Neu5Ac(a2-6)Gal(b1-4)GlcNAc(b1-2)Man(a1-6)]Man(b1-4)GlcNAc(b1-4)[Fuc(a1-6)]GlcNAc
Procedure, shortened: as §1

[41] = target: Neu5Ac(a2-6)Gal(b1-4)GlcNAc(b1-2)Man(a1-3)[Neu5Gc(a2-6)Gal(b1-4)GlcNAc(b1-2)Man(a1-6)]Man(b1-4)GlcNAc(b1-4)GlcNAc
Procedure, shortened: as §1

B1: PNA (Arachis hypogaea), P02872 (protein)
chain: MKPFCVFLTFFLLLAASSKKVDSAETVSFNFNSFSEGNPAINFQGDVTVLSNGNIQLTNLNKVNSVGRVLYAMPVRIWSSATGNVASFLTSFSFEMKDIKDYDPADGIIFFIAPEDTQIPAGSIGGGTLGVSDTKGAGHFVGVEFDTYSNSEYNDPPTDHVGIDVNSVDSVKTVPWNSVSGAVVKVTVIYDSSTKTLSVAVTNDNGDITTIAQVVDLKAKLPERVKFGFSASGSLGGRQIHLIRSWSFTSTLITTTRRSIDNNEKKIMNMASA
glycan array binding signal (z-score) [1]: -0.112 | glycan array binding signal (z-score) [2]: -0.138 | glycan array binding signal (z-score) [3]: -0.195 | glycan array binding signal (z-score) [4]: -0.195 | glycan array binding signal (z-score) [5]: -0.068 | glycan array binding signal (z-score) [6]: 0.075 | glycan array binding signal (z-score) [7]: -0.225 | glycan array binding signal (z-score) [8]: -0.195 | glycan array binding signal (z-score) [9]: -0.195 | glycan array binding signal (z-score) [10]: -0.195 | glycan array binding signal (z-score) [11]: -0.195 | glycan array binding signal (z-score) (Neu5Ac(a2-3)Gal3S): -0.195 | glycan array binding signal (z-score) [12]: -0.196 | glycan array binding signal (z-score) [13]: -0.18 | glycan array binding signal (z-score) [14]: -0.195 | glycan array binding signal (z-score) [15]: -0.195 | glycan array binding signal (z-score) (Neu5Ac(a2-3)GalNAc): -0.212 | glycan array binding signal (z-score) [16]: -0.196 | glycan array binding signal (z-score) [17]: -0.195 | glycan array binding signal (z-score) [18]: -0.195 | glycan array binding signal (z-score) [19]: -0.195 | glycan array binding signal (z-score) [20]: -0.195 | glycan array binding signal (z-score) [21]: -0.162 | glycan array binding signal (z-score) [22]: -0.138 | glycan array binding signal (z-score) [23]: -0.066 | glycan array binding signal (z-score) [24]: -0.195 | glycan array binding signal (z-score) [25]: -0.148 | glycan array binding signal (z-score) (Neu5Ac(a2-6)Gal): -0.161 | glycan array binding signal (z-score) [26]: -0.195 | glycan array binding signal (z-score) [27]: -0.195 | glycan array binding signal (z-score) [28]: -0.151 | glycan array binding signal (z-score) [29]: -0.195 | glycan array binding signal (z-score) (Neu5Ac(a2-6)Gal(b1-4)Glc): -0.166 | glycan array binding signal (z-score) [30]: -0.191 | glycan array binding signal (z-score) [31]: -0.239 | glycan array binding signal (z-score) [32]: -0.181 | glycan array binding signal (z-score) [33]: -0.176 | glycan array binding signal (z-score) [34]: -0.199 | glycan array binding signal (z-score) [35]: -0.193 | glycan array binding signal (z-score) [36]: -0.394 | glycan array binding signal (z-score) [37]: -0.157 | glycan array binding signal (z-score) [38]: -0.054 | glycan array binding signal (z-score) [39]: -0.134 | glycan array binding signal (z-score) [40]: -0.21 | glycan array binding signal (z-score) [41]: -0.195
